Common to all, as to experiment: co-IP; co-immunoprecipitation of endogenous NudC with WIPI proteins (Supplementary Fig. 4)
For one assay, the target named is T1, GFP-WIPI4 (human) (UniProt Q9Y484).
T1 sequence: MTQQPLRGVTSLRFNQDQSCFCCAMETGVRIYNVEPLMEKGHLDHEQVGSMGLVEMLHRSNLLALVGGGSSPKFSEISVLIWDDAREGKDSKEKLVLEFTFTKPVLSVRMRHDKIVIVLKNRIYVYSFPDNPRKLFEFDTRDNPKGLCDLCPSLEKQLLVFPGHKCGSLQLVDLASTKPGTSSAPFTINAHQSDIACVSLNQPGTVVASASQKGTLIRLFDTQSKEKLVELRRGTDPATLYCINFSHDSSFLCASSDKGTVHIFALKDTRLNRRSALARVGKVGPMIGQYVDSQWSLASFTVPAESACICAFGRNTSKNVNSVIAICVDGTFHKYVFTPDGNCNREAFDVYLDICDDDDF

Chains of the proteins cited; added tags and fusions are not shown.
UniProt Q5MNZ6: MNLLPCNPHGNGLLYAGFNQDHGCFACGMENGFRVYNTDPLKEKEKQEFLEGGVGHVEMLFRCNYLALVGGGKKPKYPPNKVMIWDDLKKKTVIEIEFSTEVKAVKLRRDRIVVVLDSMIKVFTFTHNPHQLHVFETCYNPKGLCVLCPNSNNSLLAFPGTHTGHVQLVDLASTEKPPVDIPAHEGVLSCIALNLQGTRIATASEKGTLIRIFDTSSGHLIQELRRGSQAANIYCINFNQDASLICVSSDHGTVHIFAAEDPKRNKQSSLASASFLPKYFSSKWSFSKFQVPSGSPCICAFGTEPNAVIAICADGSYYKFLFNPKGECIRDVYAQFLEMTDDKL
UniProt Q9Y266: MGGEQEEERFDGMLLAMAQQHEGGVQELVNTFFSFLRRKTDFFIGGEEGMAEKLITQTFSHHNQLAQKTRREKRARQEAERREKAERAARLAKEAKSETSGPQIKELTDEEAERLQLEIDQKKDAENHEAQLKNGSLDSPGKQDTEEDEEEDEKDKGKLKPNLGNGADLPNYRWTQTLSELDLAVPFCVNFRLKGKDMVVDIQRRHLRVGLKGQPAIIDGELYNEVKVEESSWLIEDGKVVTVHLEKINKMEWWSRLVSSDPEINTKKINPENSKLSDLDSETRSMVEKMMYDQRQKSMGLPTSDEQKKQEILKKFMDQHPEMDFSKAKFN

The next assay deals with T2, GFP-WIPI1 (human) (UniProt Q5MNZ9).
T2 sequence: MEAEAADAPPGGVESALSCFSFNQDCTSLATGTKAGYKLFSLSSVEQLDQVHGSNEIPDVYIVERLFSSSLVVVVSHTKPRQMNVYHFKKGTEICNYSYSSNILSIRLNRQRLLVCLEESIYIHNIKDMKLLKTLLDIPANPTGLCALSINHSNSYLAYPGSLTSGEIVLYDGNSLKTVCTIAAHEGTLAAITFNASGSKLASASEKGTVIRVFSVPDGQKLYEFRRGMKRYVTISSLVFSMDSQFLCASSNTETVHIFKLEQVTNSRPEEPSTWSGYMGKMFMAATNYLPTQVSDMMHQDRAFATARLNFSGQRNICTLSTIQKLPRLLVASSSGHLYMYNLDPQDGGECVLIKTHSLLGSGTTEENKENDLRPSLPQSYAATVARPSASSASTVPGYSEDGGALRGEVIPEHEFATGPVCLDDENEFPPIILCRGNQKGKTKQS

The target of another assay is GFP-WIPI3 (human) (UniProt Q5MNZ6).
For another assay, the target named is T3, GFP-WIPI2B (human) (UniProt Q9Y4P8).
T3 sequence: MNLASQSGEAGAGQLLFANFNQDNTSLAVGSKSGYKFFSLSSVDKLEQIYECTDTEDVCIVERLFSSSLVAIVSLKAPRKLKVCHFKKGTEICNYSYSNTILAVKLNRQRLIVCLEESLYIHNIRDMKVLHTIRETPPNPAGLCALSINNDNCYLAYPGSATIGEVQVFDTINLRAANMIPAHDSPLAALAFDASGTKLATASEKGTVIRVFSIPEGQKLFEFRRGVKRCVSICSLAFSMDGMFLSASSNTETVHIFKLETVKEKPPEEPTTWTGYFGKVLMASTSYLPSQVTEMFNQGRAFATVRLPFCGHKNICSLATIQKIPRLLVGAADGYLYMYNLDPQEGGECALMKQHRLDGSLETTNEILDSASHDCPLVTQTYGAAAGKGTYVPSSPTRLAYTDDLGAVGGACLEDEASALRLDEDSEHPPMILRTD

Another assay concerns the target T4, GFP-WIPI2D (human) (UniProt Q9Y4P8).
T4 sequence: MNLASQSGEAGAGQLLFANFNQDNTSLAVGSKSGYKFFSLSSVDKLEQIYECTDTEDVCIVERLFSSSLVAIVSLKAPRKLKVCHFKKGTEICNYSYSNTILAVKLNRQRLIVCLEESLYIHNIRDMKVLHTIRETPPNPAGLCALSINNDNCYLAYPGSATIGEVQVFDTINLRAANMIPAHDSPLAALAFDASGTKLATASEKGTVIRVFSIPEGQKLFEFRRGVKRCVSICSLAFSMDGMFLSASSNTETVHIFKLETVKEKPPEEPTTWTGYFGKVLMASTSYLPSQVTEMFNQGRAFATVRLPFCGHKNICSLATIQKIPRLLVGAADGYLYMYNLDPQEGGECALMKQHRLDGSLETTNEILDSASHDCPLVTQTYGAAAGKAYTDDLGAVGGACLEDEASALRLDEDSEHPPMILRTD

No constants are given. Whether binding was seen depends on the method and setting. Binding seen in cells or lysates may run through a third protein. Some binding calls cover weakened binding; strength is not graded here. For some assays here: Tags and fused reporters may be left off the sequences shown.

As for “endogenous NudC (from UniProt Q9Y266 1-331)”, the binding result in the assay with GFP-WIPI4 (human) is “binds”; with GFP-WIPI1 (human), “binds”; with GFP-WIPI3 (human), “no binding”; in the assay with GFP-WIPI2B (human), “binds”; with GFP-WIPI2D (human) it was “binds”.
